Sequences with one replicate were seen in a single cluster, so their values are uncertain.
Test system: ATP
Assay: switch fluorescence ratio, 500 uM ATP over buffer (Cy3 cluster intensity, sum of 5 cycles each) (fold (ratio)); higher = stronger signal-on switching upon ATP binding; sequences stand for … in TCGTCGGCAGCGTCAGATGTGTATAAGAGACAGTTTTTTTTTTTTTTTTTTTTTTTTT…TC
Conditions: aptamer strand: ATP DNA aptamer (quencher-CACCTGGGGGAGTATTGCGGAGGAAGG + anchor), 100 nM annealed; ATP concentration: 500 uM; one replicate
How it was run: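 Values give the fluorescence ratio for each switch-domain sequence, averaged from per-cluster ratios of summed target-cycle to summed buffer-cycle Cy3 intensity. The Cy3-labelled switching-strand clusters sat on a modified Illumina MiSeq flow-cell, were annealed to 100 nM quencher-labelled ATP aptamer, and were imaged in selection buffer, then after 15 min with 500 uM ATP at 22 °C. Five cycles ran with NaOH stripping and re-annealing between them, and clusters outside 100-1000 RFU were excluded.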
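Also: ATP exposure 15 min at 22 °C before imaging.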

Sequence	switch fluorescence ratio
GGCTAGGC	0.982
TTATCAGTGC	1.02
CACAGCAAGG	1.56
AATGCTGCGT	1.02
AAGCATGCTA	0.984
ATGCATACTA	1.05
TGTCTAGTAA	0.961
ACTGGAAATC	1.02
GGTGTCTCCA	1.05
TAGTTTATGC	1.07
GCGACTCGT	1.02
GGAAGAGCAG	0.98
CCGTAGCGCG	1.86
GGAATATGCA	1.01
AAATTCCTGG	1.01
GAGCTCAATT	0.983
CTTGTTAATA	1
AGCCAAAGC	1.05
TTAATTTCAA	1
CCCATCGAG	0.955
AAGAATGTGC	1.02
GATACTTAGC	0.993
TCGCGCTGGG	1.03
GCGGGATGCT	1.01
GCCTAACACA	1.01

Sequence	switch fluorescence ratio
TCATAAAGGA	0.984
AGGTAGCGGG	1.03
TTCAAAGA	1
ATTTGATAGG	0.998
GCTCTCCTCA	1.1
TCTAATCGGG	1.01
CTGGAGCCGC	1.97
CACTTTTTC	1
GTTTCCCTCA	1.01
CAGAGCGGAC	2.24
TGCAACGGAC	2.22
TAGACTAGTC	1.02
GGTGTATTGT	1.01
GCTTAATTAT	0.95
ATGTCAATTA	0.989
AGCACCAAGG	1.14
GGTGGTCTTA	1.05
ATTTGTCTCC	1.01
TCGGCTGATG	1
CACTGAACGG	2.06
TTTGGGGCCA	0.995
CTAGACGCTC	1.17
CTCAGTTCAG	0.987
CAGAGGCCCT	1.06
GCTAGCTGGG	1.02

Sequence	switch fluorescence ratio
AGGAGTGT	1
TATACTCGCA	1.16
CCCGAAGTAA	1.58
AACCTTCGGT	0.983
TGCCCATGTC	0.946
CCTTGGCAGA	3.08
GGCTTAAAGA	1.03
GGCTTACGTA	1.08
TGCTCAGGGG	1.37
GTGAACTATG	1
TAAGTATCGA	0.99
CTTTTCTTGT	1.04
CCCCTTGTCA	1.03
TATTTGTTAC	1.04
TACGCGCTGC	1.01
TTGAGTTCA	1.02
TTATGGGCA	0.967
TAAAAGAACG	1.14
ACTGGGACGT	1.04
CTTTTAACTT	1.06
TAGTTCGACC	1.03
GCGTTGTCAA	1.02
CTTATATCGT	0.966
GCCTTCTTAG	1.06
CCCTATGTTC	0.992

Sequence	switch fluorescence ratio
CTTCCGGTT	1.14
GAAGGTAAAG	1.04
TTCCAATATG	1.53
TTAACGTGCA	0.969
CCACGGGAAA	0.988
GGTGTGAGGG	0.94
GATAGCATA	0.964
AGGAGCGGC	0.846
TGTGCTCAC	1.01
TCCGGCGCGG	2.93
GACTCTTGCT	1.07
CTTCTTTTTT	0.955
GTGTTTGCAC	0.99
ACCGTATTAT	1.16
TGGCTGATAA	1.01
ACGACGGCGA	1.52
GCACTAACAA	1.11
TAAGCGCCCC	1.19
CCTGTCTGTC	1.03
CAGGCTTGGC	0.963
TTCATGTTCG	1
GAGTAGTGAA	2.21
AGCACTGTTG	1.01
GAGTGTATCG	1.22
AGTAACGTAC	1.92

Source: the supplement of paper PMC10126150
